Out of some 46,000 compounds screened, about 60 (0.1%) were called active. About 3% were inconclusive and are not listed. Calls follow the shape of the dose curve; as a rule, active = well fitted inhibition curve with a large enough effect; inconclusive = small, poorly fitted or top-dose-only effect; inactive = no such curve, though single readings can be large or run the other way. The list shows a part of the results.
Experiment: Primary qHTS assay for Inhibitors of ovarian cancer metastasis using an organotypic tumor microenvironment (TME) model. Also: nearly all actives have a fitted effect of over 65% in size.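 As to activity change, negative = inhibition: plate controls were DMSO wells for no effect and tomatine positive control wells for full effect.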
Conditions: SKOV3ip1-GFP adhesion/invasion on 3D omental model, fluorescence; series mostly up to 45.8 µM; activity change, negative = inhibition: at the top concentration
Summary of the method: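 qHTS, 4-pt dose (0.36-46 umol/L); SKOV3ip1-GFP, 1,200 cells/well, no FBS; primary omental fibroblast/mesothelial co-culture 48 h pre-grown; 2 h RT + 16 h 37 C; PBS wash, 4% PFA; GFP count 488/509 nm.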

outcome, inactive:
O=C1CCSc2ccc(S(=O)(=O)Nc3ccc(Cl)c(C(F)(F)F)c3)cc2N1
CC(C)c1ccc(NC(=O)c2ccc(F)c(S(=O)(=O)N3CCCCCC3)c2)cc1
COc1ccc(CNC(=O)c2nc(Cn3nc(C)c(Br)c3C)no2)cc1OC
COc1ccc(Cc2nc3ccc(C(=O)NCc4ccc(OC)cc4OC)cc3o2)cc1
CCc1ccccc1NC(=O)C1CCN(S(=O)(=O)c2ccc3[nH]c(=O)ccc3c2)CC1
CCCCn1c(=O)c2oc3ccccc3c2n(CC(=O)Nc2cccc(Cl)c2C)c1=O
CCOc1ccc(C(=O)c2cn(CC(=O)Nc3ccc4c(c3)OCO4)c3ccc(OCC)cc3c2=O)cc1
COc1ccc(-n2c(=O)c3c(c4cc(OC)ccc4n3C)n(Cc3cc(C)ccc3C)c2=O)cc1
Cc1ccc(NC(=O)Cn2c(=O)n(-c3ccccc3)c(=O)c3ccc(C(=O)NCc4ccc5c(c4)OCO5)cc32)c(C)c1
Nc1c(C(=O)c2ccc(F)cc2)sc(Nc2ccccc2F)c1S(=O)(=O)c1ccc(Br)cc1
O=C(Nc1c(-c2ccc(F)cc2)nc2ccccn12)c1ccccc1F
COc1cccc(/C=C/c2onc(C)c2S(=O)(=O)N2CCC(C(=O)N3CCC(C)CC3)CC2)c1
CCOC(=O)C1=C(CN2CCN(c3ccccc3F)CC2)NC(=O)NC1c1ccc(Cl)cc1 (centres undefined)
COc1ccc(-c2cn3c(n2)sc2cc(C(=O)Nc4cccc(OC)c4)ccc23)cc1
CCOc1ccc(CCNC(=O)c2cc3c(s2)-c2ccccc2OC3)cc1OCC
COc1cc(OC)c(N(C)C(=O)Cn2ncc3c(=O)oc4ccccc4c32)cc1Cl
COCCNC(=O)c1c(NC(=O)c2cc(=O)c3cc(Cl)ccc3o2)sc2c1CCCC2
CCC(C)NC(=O)CSc1nc(-c2ccc(F)cc2)cc(C(F)(F)F)n1 (centres undefined)
COc1cccc(C(=O)Nc2cccc(C(=O)OCc3cc(=O)n4c5c(sc4n3)CCCC5)c2)c1
COc1ccccc1-n1c(=O)c2c3c(sc2n(Cc2ccccc2F)c1=O)CN(C(C)=O)CC3
CCOC(=O)CSc1nc2c(sc3cccc(F)c32)c(=O)n1Cc1ccc(OC)cc1
CC(C)c1cc(-c2nc(-c3ccc(Br)cc3)no2)n[nH]1
CCCN1CCN(CCNC(=O)Nc2ccccc2OCC)CC1
CCOC(=O)c1c(C)[nH]c(C)c1S(=O)(=O)NCC(=O)NCc1ccccc1Cl
COc1cc(C(CC(=O)Nc2cc(C)ccn2)N2Cc3ccccc3C2=O)cc(OC)c1OC (centres undefined)
CCOc1ccccc1C(=O)Nc1ccc(S(=O)(=O)Nc2ncccn2)cc1

Activity change, negative = inhibition, inactive:
COc1cc(NC(=O)c2sc3nc4n(c(=O)c3c2C)CCCCC4)cc(OC)c1OC 2.9%
Cc1noc(C)c1S(=O)(=O)N1CCC(C(=O)Nc2ccc(Br)cc2)CC1 1.71%
CC(C)(C)c1ccc(C(=O)Nc2cc(-c3nc4ccccc4o3)ccc2Cl)cc1 6.21%
Cc1ccc(C)c(NC(=O)CSc2nc(-c3ccccc3)cc(=O)[nH]2)c1 1.42%
CCN(C(=O)c1cc2cc3ccc(OC)cc3nc2o1)c1cccc(C)c1 11.6%
COc1ccc(N2CCN(S(=O)(=O)c3c(C)[nH]c(=O)[nH]c3=O)CC2)cc1 1.3%
COc1ccc(CCNC(=O)C(=O)Nc2ccc(C)cc2)cc1OC -12.4%
CC(=O)c1ccc(Oc2nc(C)nc3c2oc2ccccc23)cc1 0.408%
COc1ccc(-c2nc(C(=O)Nc3ccc(C(C)=O)cc3)nn2-c2cccc(Cl)c2)cc1 -7.44%
COc1ccc(S(=O)(=O)N(CC(=O)Nc2cccc(C(F)(F)F)c2)c2ccc(C)cc2)cc1 32.9%
Cn1c(=O)n(C/C=C/c2ccccc2)c(=O)c2c1nc1n2CCN1c1ccccc1 23.9%
CCCCOc1ccc(CNC(=O)C2COc3ccc(OC)cc3C2)cc1 (centres undefined) -5.16%
CN(C)Cc1c(C(=O)NCCOc2ccc(C(=O)NO)cc2)oc2ccccc12 -11.3%
COc1ccc(OC)c(-c2csc(-c3c(N)c(C(=O)c4ccccc4)n4ccccc34)n2)c1 -0.622%
COc1ccc(CN(Cc2ccco2)c2cnc(S(C)(=O)=O)nc2C(=O)Nc2ccc(F)cc2)cc1 -0.492%
CC(C)NCC(O)COc1ccc(COCCOC(C)C)cc1 (centres undefined) -4.51%
Cc1ccc(NC(=O)CN2C(=O)COc3ccc(S(=O)(=O)N4CCCCC4)cc32)cc1N(C)C 21.5%
COC(=O)c1cccnc1-n1c(=O)c2cccnc2n(CC(=O)Nc2c(C)cc(C)cc2C)c1=O -1.88%
O=C(Cn1ncn2nc(-c3cccs3)cc2c1=O)NCc1cccc(Br)c1 -6.4%
CCOc1ccc(S(=O)(=O)N(CC(=O)Nc2ccc3c(c2)OCO3)c2ccccc2)cc1 13.1%
CC(C)CN(CCNC(=O)CN1C(=O)CSc2ccc(S(=O)(=O)N3CCOCC3)cc21)CC(C)C 13%
CC1(C)CC(=O)c2c(C(F)(F)F)nn(-c3ccc(C(N)=O)c(NC4CCC(OC(=O)CN)CC4)c3)c2C1 (centres undefined) 17.5%
Cc1cccc(CNC(=O)c2ccc(NC(=O)N3CC(C)Sc4ccccc43)cc2)c1 (centres undefined) 3.55%
CCOC(=O)c1cccc(NC(=O)c2ccc3nc(Cc4ccccc4)oc3c2)c1 -0.731%
COc1ccccc1CNC(=O)c1ccc2c(c1)CCN2S(=O)(=O)c1ccccc1 -8.23%
O=C(/C=C\c1ccc2c(c1)OCO2)NC1CC(=O)N(c2cccc(F)c2)C1 (centres undefined) 5.32%
COc1ccccc1N1CCN(C(=O)CSc2n[nH]c(-c3ccccc3)n2)CC1 -15.2%
Cc1cc2ccccc2n1-c1ccc(C(=O)N2CCC(C(=O)NCc3ccccc3Cl)CC2)s1 3.81%
Cc1ccc(-n2c3c(c(=O)[nH]c2=O)C(NC(=O)c2ccccc2C)(C(F)(F)F)C(=O)N3)cc1 (centres undefined) -4.81%
COC(=O)c1scc(-c2ccc(C)cc2)c1S(=O)(=O)Nc1ccc(N(C)C)cc1 -15.6%
Cc1ccccc1NCc1cccn1-c1nnc(N2CCC(C)CC2)s1 22.1%
CC(CNC(=O)Cc1ccc(NC(=O)N2CCSc3ncccc32)cc1)c1ccccc1 (centres undefined) 1.1%
Cn1c(=O)oc2cc(S(=O)(=O)Nc3ccccc3O)ccc21 -5.2%
Cc1c(Cl)cccc1-n1nc(C)c2c(C(=O)NCc3ccccc3)cc(C3CC3)nc21 8.98%
Cc1nc2c(-c3ccccc3)c(C)nn2c(C)c1CCC(=O)NCc1ccc(F)cc1 -6.72%
CCOc1ccc(NC(=O)CC2C(=O)N(c3ccccc3)C(=O)N2Cc2ccc3c(c2)OCO3)cc1 (centres undefined) 4.39%
Cc1ccc(CNC(=O)C2CCN(S(=O)(=O)c3cc(-c4noc(C)n4)ccc3C)CC2)cc1 0.817%
O=C(NCc1ccc(Cl)cc1)C1CCN(S(=O)(=O)Cc2ccccc2)CC1 -23.7%
COc1ccc(-c2cc(C(F)(F)F)nc(SCC(=O)N3CCC(C)CC3)n2)cc1 3.22%
Cc1ccc(-c2cc(NC(=O)COc3ccc(Cl)cc3C)on2)cc1 6.36%
Cc1ccc(CN2C(=O)N(c3ccccc3)C(=O)C2CC(=O)Nc2ccccc2)cc1 (centres undefined) 3.76%
COC(=O)c1ccccc1NC(=O)N1CCC(n2c(C)nc3cccnc32)CC1 -4.61%
Cc1ccc(NC(=O)N2CCN(C)c3ncccc32)cc1C -11.4%
O=C(CN1C(=O)COc2ccc(S(=O)(=O)N3CCCCCC3)cc21)NCCc1ccccc1 2.92%
COC(=O)c1ccccc1NC(=O)c1cnc2sc(N3CCOCC3)nn2c1=O 8.79%
Cc1ccc(CNC(=O)c2cc(=O)c3cc(C)cc(C)c3o2)cc1 0.52%
CC(=O)N1CCN(c2csc3ccc(Br)cc3c2=O)CC1 1.06%
CCc1cccc(C)c1NC(=O)Cn1cc2c(n1)CCCCC2 -5%
COc1ccccc1NC(=O)Cn1nnc(C(=O)Nc2ccccc2Br)c1N -5.72%
CCc1nn(CCCC(=O)NCc2cc(Br)ccc2OC)c(=O)c2cc3occc3n12 -9.47%
Cc1cccc(NS(=O)(=O)c2ccc3c(c2)OCC(C(=O)N2CCCC2)O3)c1C (centres undefined) 13.7%
CCOc1ccc(NC(=O)c2cc3cc4cc(OC)ccc4nc3s2)cc1 -1.98%
O=C(NCCS(=O)(=O)N1CCN(c2ccc(F)cc2)CC1)C1CC(=O)N(c2ccccc2)C1 (centres undefined) -5.37%
Cc1ccc(S(=O)(=O)c2cn(CC(=O)Nc3ccc4c(c3)OCO4)c3ccccc3c2=O)cc1C 6.19%
CC(C)(C)C(=O)Nc1ccc2nc(SCC(=O)N3CCc4ccccc43)sc2c1 -2.66%
Cc1ccc(-c2nnc(Nc3ccc(O)cc3)c3ccccc23)cc1S(=O)(=O)N1CCCCC1 -5.53%
O=c1c2cccnc2n(Cc2cccc(F)c2)c(=O)n1Cc1ccccc1Cl 2.55%
COc1ccc2cc(CNc3ccc(C)cc3)c(=O)n(CC(=O)Nc3cccc(C(F)(F)F)c3)c2c1 -5.53%
CCN1CCN(c2ncc3c(n2)CCN(Cc2ccc(OC)c(OC)c2)C3)CC1 -8.28%
C[C@H]1C[C@H]2[C@@H]3CCC4=CC(=O)C=C[C@]4(C)[C@@H]3C(=O)C[C@]2(C)[C@@]1(O)C(=O)CO -1.35%
COc1ccc2[nH]c(=O)c(CN(C(=O)c3cccc(Cl)c3)c3cccc(C)c3)cc2c1 0.475%
CCCN(Cc1cccs1)C(=O)Nc1ccc(Br)cc1F -5.93%
CN(Cc1ccccc1)C(=O)c1cc(-c2cccc(Cl)c2)on1 -0.789%
CCN1C(=O)c2ccccc2S(=O)c2ccc(C(=O)N3CCN(c4ccccc4OC)CC3)cc21 (centres undefined) 35%
COc1cccc(CNC(=O)CCCCCn2c(=O)[nH]c3cc(OC)c(OC)cc3c2=O)c1 1.77%
Cc1cccc(Cc2c(C)nc3nc(SCc4ccccc4F)nn3c2C)c1 5.8%
COc1ccccc1CNC(=O)CCCn1c(=O)c2ccccc2n(Cc2ccccc2C#N)c1=O 43.2%
COc1ccc2c(c1)c1c(c(=O)n(-c3cccc(C)c3)c(=O)n1CC(=O)NCC1CCCO1)n2C (centres undefined) -15%

Source: PubChem BioAssay AID1963576 (National Center for Advancing Translational Sciences (NCATS), 2024)
